According to the supplement of paper PMC8728848:
The list shows a part of the results.

Columns and labels:
Experiment in all cases: glycan array binding signal (z-score within array); higher = stronger binding
Details in all cases: glycan notation: IUPAC condensed, linker removed; mutation: E227G
[1] = target: Neu5Ac(a2-3)Gal(b1-4)GlcNAc(b1-3)[Neu5Ac(a2-3)Gal(b1-4)GlcNAc(b1-6)]GalNAc
In short: (§1)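 The Consortium for Functional Glycomics database supplied 3228 glycan arrays, of which those lacking an available protein sequence were dropped. The binding signal, a within-array Z-score, was averaged across arrays of the same protein sequence and across linkers. Negative scores can be read as non-binding.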

[2] = target: Neu5Ac(a2-3)Gal(b1-4)GlcNAc(b1-6)GalNAc
In short: as §1

[3] = target: Neu5Ac(a2-3)Gal(b1-4)GlcNAc(b1-6)[Gal(b1-3)]GalNAc
In short: as §1

[4] = target: Neu5Ac(a2-3)Gal(b1-4)GlcNAc(b1-6)[Neu5Ac(a2-3)Gal(b1-3)]GalNAc
In short: as §1

[5] = target: Neu5Ac(a2-3)Gal(b1-4)GlcNAc6S
In short: as §1

[6] = target: Neu5Ac(a2-3)Gal(b1-4)[Fuc(a1-3)]GlcNAc
In short: as §1

[7] = target: Neu5Ac(a2-3)Gal(b1-4)[Fuc(a1-3)]GlcNAc(b1-2)Man
In short: as §1

[8] = target: Neu5Ac(a2-3)Gal(b1-4)[Fuc(a1-3)]GlcNAc(b1-3)Gal
In short: as §1

[9] = target: Neu5Ac(a2-3)Gal(b1-4)[Fuc(a1-3)]GlcNAc(b1-3)Gal(b1-4)GlcNAc
In short: as §1

[10] = target: Neu5Ac(a2-3)Gal(b1-4)[Fuc(a1-3)]GlcNAc(b1-3)Gal(b1-4)[Fuc(a1-3)]GlcNAc(b1-3)Gal(b1-4)[Fuc(a1-3)]GlcNAc
In short: as §1

[11] = target: Neu5Ac(a2-3)Gal(b1-4)[Fuc(a1-3)]GlcNAc(b1-3)GalNAc
In short: as §1

[12] = target: Neu5Ac(a2-3)Gal(b1-4)[Fuc(a1-3)]GlcNAc(b1-6)[Gal(b1-3)]GalNAc
In short: as §1

[13] = target: Neu5Ac(a2-3)Gal(b1-4)[Fuc(a1-3)]GlcNAc(b1-6)[Neu5Ac(a2-3)Gal(b1-3)]GalNAc
In short: as §1

[14] = target: Neu5Ac(a2-3)Gal(b1-4)[Fuc(a1-3)]GlcNAc6S
In short: as §1

[15] = target: Neu5Ac(a2-3)Gal6S(b1-4)GlcNAc
In short: as §1

[16] = target: Neu5Ac(a2-3)Gal6S(b1-4)[Fuc(a1-3)]GlcNAc
In short: as §1

[17] = target: Neu5Ac(a2-3)GalNAc
In short: as §1

[18] = target: Neu5Ac(a2-3)GalNAc(b1-4)GlcNAc
In short: as §1

[19] = target: Neu5Ac(a2-3)[GalNAc(b1-4)]Gal(b1-4)Glc
In short: as §1

[20] = target: Neu5Ac(a2-3)[GalNAc(b1-4)]Gal(b1-4)GlcNAc
In short: as §1

[21] = target: Neu5Ac(a2-3)[GalNAc(b1-4)]Gal(b1-4)GlcNAc(b1-3)GalNAc
In short: as §1

[22] = target: Neu5Ac(a2-3)[Neu5Ac(a2-6)]GalNAc
In short: as §1

[23] = target: Neu5Ac(a2-6)Gal
In short: as §1

[24] = target: Neu5Ac(a2-6)Gal(b1-3)GlcNAc(b1-3)[Gal(b1-4)GlcNAc(b1-6)]Gal(b1-4)Glc
In short: as §1

[25] = target: Neu5Ac(a2-6)Gal(b1-4)Glc
In short: as §1

[26] = target: Neu5Ac(a2-6)Gal(b1-4)GlcNAc
In short: as §1

[27] = target: Neu5Ac(a2-6)Gal(b1-4)GlcNAc(b1-2)Man
In short: as §1

[28] = target: Neu5Ac(a2-6)Gal(b1-4)GlcNAc(b1-2)Man(a1-3)Man(b1-4)GlcNAc(b1-4)GlcNAc
In short: as §1

[29] = target: Neu5Ac(a2-6)Gal(b1-4)GlcNAc(b1-2)Man(a1-3)[Gal(b1-4)GlcNAc(b1-2)Man(a1-6)]Man(b1-4)GlcNAc(b1-4)GlcNAc
In short: as §1

[30] = target: Neu5Ac(a2-6)Gal(b1-4)GlcNAc(b1-2)Man(a1-3)[GlcNAc(b1-2)Man(a1-6)]Man(b1-4)GlcNAc(b1-4)GlcNAc
In short: as §1

B1: Epa1-NP-mutant-E227G (Candida glabrata), Q6VBJ0 (protein)
chain: MILNPALFLNKCVCIYTTLILLLLTNGGYATSSNDISLASKDPTTFPLGCSPDITTPKKGLSMELYSYDFRKKGSYPCWDAAYLDPNYPRTGYKSHRLLAKVDGVTGNINFYYHATKGCTPQLGHLPASYNYPKPLTMTNFTMLLYGYFRPKVTGFHTFTISADDLLFVNFGAGNAFDCCRRDSSADHFGNYQAYAIWGSKTAKDELTVHLDAGVYYPIRLFYNNRGYDGALSFTFKTESNENTVSDFSEYFFSLDDTEEGCPGLISYDSSCASVKTSKIIGIDYHTETPNENLVPITKTIYHLGIPCTGTTTTPLCGSGFYDPLANKCVTINTSSTSSVTKTTSHTTSKEVSFHSSISSQKTLIPKSIPSPYGPIKSQSIPTEMETSSEISSSEYAFSDVISTPSHSPYTKKHSSLNSSSYTSTVIHSLTSYSISQGIFSTSLSEQNITSKSSTDKFSTATSMSNNITQSSIIISQFSTNNENYTTTSMHTSSDKISTETLNNSISTTTSILFSNSSTILKNNTTIISSDKDTHYHPVNPTIVCSTNKTEIICASITQPSISNSNNHWSSSVLKFNSTTVRSTLPSSAGSNETSINVPFSSSTESNTSTSSTSTSNSKMVRSTLPSSAGSNETSISVPFSSSTESNTSTSSTSTSNSKMVRSTLPSSAGSNETSINVPFSSSTESNTSTSSTSTSNSKTVRSTPFSSAGIIMTSLSQRNNKSASSYASSNSKCYNTADSCRKVHSTPSYLLTSSYTSEGVDYDCSLVSTKLKINDTNCVNNKHTTKSCLKTSVTTTIPTLEIKTARKSSSNTIGLHSYPTSSPNKSISSAPIIGYISSFKTIKTASPSYQTSDLTTITTITSLNNPGSTAVENTHESNDKSRKTSSNDISSKHSVIKETKDAVESSNKSHQTNTLKCSSIIIASSSHNSYESLGGTTLTLTLSKVYSPQNNDTLPFLEISEVNPSRTVLPESSKMMQYLTSTEERNKTARNTIATNIVSISTFHFEGEGNAIRMGYTQLLLMLIGIIVMNIGT
**Q.** Which “glycan array binding signal (z-score)” value [1] does the source give for B1 here?
**A.** Its value is -0.174.

**Q.** What about the “glycan array binding signal (z-score)” value [2] of the same binder?
**A.** Its value is -0.157.

**Q.** What about the “glycan array binding signal (z-score)” value [3] of the same binder?
**A.** The value was 0.176.

**Q.** And the “glycan array binding signal (z-score)” value [4]?
**A.** The value was -0.111.

**Q.** What about the “glycan array binding signal (z-score)” value [5] of the same binder?
**A.** Its value is -0.241.

**Q.** What about the “glycan array binding signal (z-score)” value [6] of the same binder?
**A.** Its value is -0.186.

**Q.** And the “glycan array binding signal (z-score)” value [7]?
**A.** The value was -0.326.

**Q.** And the “glycan array binding signal (z-score)” value [8]?
**A.** Its value is -0.145.

**Q.** What about the “glycan array binding signal (z-score)” value [9] of the same binder?
**A.** Its value is -0.14.

**Q.** And the “glycan array binding signal (z-score)” value [10]?
**A.** Its value is -0.192.

**Q.** And the “glycan array binding signal (z-score)” value [11]?
**A.** The value was 0.126.

**Q.** And the “glycan array binding signal (z-score)” value [12]?
**A.** The value was -0.043.

**Q.** And the “glycan array binding signal (z-score)” value [13]?
**A.** Its value is 0.017.

**Q.** And the “glycan array binding signal (z-score)” value [14]?
**A.** The value was -0.268.

**Q.** And the “glycan array binding signal (z-score)” value [15]?
**A.** The value was -0.281.

**Q.** What about the “glycan array binding signal (z-score)” value [16] of the same binder?
**A.** The value was -0.356.

**Q.** And the “glycan array binding signal (z-score)” value [17]?
**A.** Its value is -0.158.

**Q.** What about the “glycan array binding signal (z-score)” value [18] of the same binder?
**A.** Its value is -0.186.

**Q.** And the “glycan array binding signal (z-score)” value [19]?
**A.** Its value is -0.169.

**Q.** And the “glycan array binding signal (z-score)” value [20]?
**A.** Its value is -0.209.

**Q.** And the “glycan array binding signal (z-score)” value [21]?
**A.** Its value is 0.168.

**Q.** What about the “glycan array binding signal (z-score)” value [22] of the same binder?
**A.** The value was -0.219.

**Q.** And the “glycan array binding signal (z-score)” value [23]?
**A.** The value was -0.119.

**Q.** What about the “glycan array binding signal (z-score)” value [24] of the same binder?
**A.** The value was -0.144.

**Q.** What about the “glycan array binding signal (z-score)” value [25] of the same binder?
**A.** The value was -0.243.

**Q.** And the “glycan array binding signal (z-score)” value [26]?
**A.** Its value is -0.247.

**Q.** What about the “glycan array binding signal (z-score)” value [27] of the same binder?
**A.** Its value is -0.243.

**Q.** What about the “glycan array binding signal (z-score)” value [28] of the same binder?
**A.** The value was -0.065.

**Q.** And the “glycan array binding signal (z-score)” value [29]?
**A.** Its value is -0.187.

**Q.** And the “glycan array binding signal (z-score)” value [30]?
**A.** Its value is -0.204.
